# Measured values as given in PubChem BioAssay AID686978 (National Center for Advancing Translational Sciences (NCATS), 2013).
# Where “and” joins values, the source holds several entries; their conditions need not be identical. Equal values may be shown once. The campaign covered roughly 420,000 compounds. About 64,000 (15%) were called active. The shares of active, inactive and inconclusive entries below differ from those in the screen. Calls come from the whole dose curve; as a rule, active = well fitted inhibition curve with a large enough effect; inconclusive = small, poorly fitted or top-dose-only effect; inactive = flat fitted curve, though single readings scatter. Potencies of inconclusive entries are doubtful fits and often do not repeat.
# Experiment: qHTS for Inhibitors of human tyrosyl-DNA phosphodiesterase 1 (TDP1): qHTS in cells in absence of CPT; note: nearly all actives have a fitted effect of over 55% in size
# Conditions: DT40 Tdp1-/- hTDP1 cells, no CPT, ATP luminescence, 48 h; activity change, negative = growth inhibition: at 46.2 µM (top of the series) unless noted
# Method in brief: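 Growth kinetics read by CellTiter-Glo luminescence after ≥48 hr at 37 °C. Cells: DT40 Tdp1-/- stably carrying human TDP1, 400 per well, compound exposure in the absence of CPT (DMSO vehicle).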
# % is set by controls: 0 for no effect and ±100 for the full control effect; potency is the fitted concentration of half-maximal effect; tags give direction and shape of the fitted curve.
Structure (SMILES),Potency,"activity change, negative = growth inhibition"
CCOC(=O)[C@]12Cc3ccccc3[C@H]1N(C(C)C)C(=O)c1cc(OC)ccc12,active: 14.6 µM,
COC(=O)C1=C(c2ccc(-c3ccccc3)c(F)c2)C[C@@H]2CC[C@H]1N2C(=O)N1CCCCC1,active: 1.3 µM,
CCOC(=O)C1CCCN(c2ccc([N+](=O)[O-])c3nonc23)C1 (configuration not stated),"inconclusive: 11.6 µM [inhibitor, partial curve]",
C=Cn1ccnc1P(=S)(c1c(C)nn(-c2ccccc2)c1C)c1nccn1C=C,,inconclusive: -30.2% [inhibitor]
c1cnc(N2CCCC3(CCNCC3)C2)nc1,inactive,
CN1CCN(CCOC2c3ccccc3CSc3ccc(Cl)cc32)CC1 (configuration not stated),active: 16.4 µM,
CCOC(=O)[C@]12Cc3cc(Cl)ccc3[C@H]1N(C(C)C)C(=O)c1ccccc12,active: 3.26 µM,
O=c1c(C=Nc2cccnc2Cl)c(O)n(CCCCl)c(=O)n1C1CCCCC1,"inconclusive: 29.1 µM [inhibitor, single point]",
CCC(C)N1C(=O)NC(=O)C2(Cc3c(ccc4ccccc34)N(C)C2)C1=O (configuration not stated),"inconclusive: 29.1 µM [inhibitor, single point]",
C=CCn1c(O)c(C(CC)=Nc2ccccc2NC(C)=O)c(=O)[nH]c1=O,inactive,
COc1cc2c(cc1C=O)OCO2,inactive,
CC[C@@H]([C@H](C)O)n1ncn(-c2ccc(N3CCN(c4ccc(OC[C@@H]5CO[C@@](Cn6cncn6)(c6ccc(F)cc6F)C5)cc4)CC3)cc2)c1=O,"inconclusive: 0.75 µM [inhibitor, full curve]",
CN1CCN(CC(=O)Nc2ccc(Cl)cc2C(=O)c2ccccc2)CC1,"inconclusive: 13 µM [inhibitor, partial curve]",
Cc1ccc(-n2c(=S)[nH]c3ccccc3c2=O)cc1C,"inconclusive: 4.11 µM [inhibitor, partial curve, poor fit]",
Cc1cccc(C)c1-n1nnnc1C(CCc1ccccc1)N1CCC2(CC1)C(=O)NCN2c1ccccc1 (configuration not stated),"inconclusive: 20.6 µM [inhibitor, single point]",
Cc1cc(/C=C2/C(=O)NC(=O)N(c3ccccc3)C2=O)c(C)n1-c1ccc(F)cc1,,inconclusive: -30.9% [inhibitor]
O=C(CCc1ccccc1)N1Cc2cc(-c3ccccc3)ccc2-n2nncc2C1,"inconclusive: 29.1 µM [inhibitor, single point]",
COc1ccc(N(CC(=O)Nc2cccc(SC)c2)S(C)(=O)=O)cc1Cl,"inconclusive: 20.6 µM [inhibitor, single point]",
CC(=O)c1ccc(-c2ccccc2)cc1,inactive,
COc1ccccc1OC(=O)Oc1ccccc1OC,"inconclusive: 33.5 µM [inhibitor, single point]",
O=C1NC(=O)C(C2CCOC2=O)N1 (configuration not stated),inactive,
CCCC(=O)OCC[N+](C)(C)C,inactive,
COC(=O)C1=C(c2ccccc2)C[C@@H]2CC[C@H]1N2C(=O)N1CCC(O)CC1,inactive,
Nc1cccc2c(N)cccc12,active: 24.3 µM,

Structure (SMILES),Potency,"activity change, negative = growth inhibition"
O=C(c1ccccc1)N1CCC2(CC1)OCCO2,inactive,
c1ccc(C2CC2)c(OCC2=NCCN2)c1,"inconclusive: 25.1 µM [inhibitor, partial curve, poor fit]",
CCc1nc(N2CCNCC2)c(C#N)c2c1CSC(C)(C)C2,"inconclusive: 29.1 µM [inhibitor, single point]",
Cc1ccc(F)cc1NC(=O)c1ccc(Cn2nc(N3CCN(c4ccccc4)CC3)ccc2=O)o1,"inconclusive: 29.1 µM [inhibitor, single point]",
CN1C2CC3CC1C(O3)C2O (configuration not stated),inactive,
c1ccc2c(CNC3CCCCC3)c[nH]c2c1,active: 6.31 µM,
CCn1nc(-c2cccs2)nc2c(=O)n(C)c(=O)nc1-2,active: 1.16 µM,
CCC(=NCc1cc(OC)cc(OC)c1)c1c(O)[nH]c(=O)[nH]c1=O,"inconclusive: 23.1 µM [inhibitor, single point]",
CCN(CC)C(=O)Cn1cc(/C=C2\C(=O)NC(=O)N(c3ccccc3F)C2=O)c2ccccc21,"inconclusive: 20.6 µM [inhibitor, single point]",
Cc1ccc(-c2nc(S(=O)(=O)c3ccc(C)cc3)c(SCC(=O)Nc3ccc(F)cc3)o2)cc1,active: 23.1 µM,
CCOc1ccc(Cl)cc1CNCCc1ccccc1F,inactive,
O=C(Nc1ccon1)c1cccn(Cc2ccccc2)c1=O,"inconclusive: 23.1 µM [inhibitor, single point]",
ClCCN(CCCl)/C(=C\c1ccccc1)c1ccnc2ccccc12,active: 3.55 µM,
O=C1NC(=O)N(CC2CCCO2)C(=O)/C1=C/c1cccs1 (configuration not stated),"inconclusive: 20.6 µM [inhibitor, single point]",
Cc1c(OC(=O)N(C)C)ccc2c1O/C(=C\c1ccco1)C2=O,"inconclusive: 23.1 µM [inhibitor, single point]",
O=C(CCl)c1ccc(Oc2ccc(C(=O)CCl)cc2)cc1,"inconclusive: 29.9 µM [inhibitor, single point]",
CSCCC(c1nnnn1C(C)(C)C)N1CCC2(CC1)C(=O)NCN2c1ccccc1 (configuration not stated),"inconclusive: 20.6 µM [inhibitor, single point]",
COc1cc2c(cc1OC)CN(c1ccc([N+](=O)[O-])c(C(F)(F)F)c1)CC2,active: 20.6 µM,
CCCCn1c(NS(=O)(=O)c2ccccc2)c(C(=O)OCC)c2nc3ccccc3nc21,active: 20.6 µM,
COc1cccc(C(c2nnnn2C(C)(C)C)N2CCC3(CC2)C(=O)NCN3c2ccccc2)c1OC (configuration not stated),"inconclusive: 18.4 µM [inhibitor, single point]",
CC[C@H]1C[C@@H]2C[C@H]3c4[nH]c5ccc(OC)cc5c4CCN(C2)[C@@H]13,"inconclusive: 47.6 µM [inhibitor, single point]",
CCOc1cc(CNCCc2c[nH]c3ccccc23)cc(Cl)c1OCC,active: 18.4 µM,
C[C@]12CCC(=O)C(O)=C1CC[C@@H]1[C@@H]2CC[C@]2(C)C(=O)CC[C@@H]12,"inactive and inconclusive: 21.1 µM [inhibitor, single point]",
